Among all 310,000 compounds or so, about 14,000 (4.5%) showed an effect of 50% or more. Effects have a minus sign here. This is one part of the list.
The compounds below were run against human ether-à-go-go-related gene (hERG) potassium channel (human, UniProt Q12809) (assay: primary screen, population patch clamp on CHO cells stably expressing hERG).
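Also: peak tail current of the secondary pulse compared with the same well before compound.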

human ether-à-go-go-related gene (hERG) potassium channel, sequence (Q12809 whole entry, looked up): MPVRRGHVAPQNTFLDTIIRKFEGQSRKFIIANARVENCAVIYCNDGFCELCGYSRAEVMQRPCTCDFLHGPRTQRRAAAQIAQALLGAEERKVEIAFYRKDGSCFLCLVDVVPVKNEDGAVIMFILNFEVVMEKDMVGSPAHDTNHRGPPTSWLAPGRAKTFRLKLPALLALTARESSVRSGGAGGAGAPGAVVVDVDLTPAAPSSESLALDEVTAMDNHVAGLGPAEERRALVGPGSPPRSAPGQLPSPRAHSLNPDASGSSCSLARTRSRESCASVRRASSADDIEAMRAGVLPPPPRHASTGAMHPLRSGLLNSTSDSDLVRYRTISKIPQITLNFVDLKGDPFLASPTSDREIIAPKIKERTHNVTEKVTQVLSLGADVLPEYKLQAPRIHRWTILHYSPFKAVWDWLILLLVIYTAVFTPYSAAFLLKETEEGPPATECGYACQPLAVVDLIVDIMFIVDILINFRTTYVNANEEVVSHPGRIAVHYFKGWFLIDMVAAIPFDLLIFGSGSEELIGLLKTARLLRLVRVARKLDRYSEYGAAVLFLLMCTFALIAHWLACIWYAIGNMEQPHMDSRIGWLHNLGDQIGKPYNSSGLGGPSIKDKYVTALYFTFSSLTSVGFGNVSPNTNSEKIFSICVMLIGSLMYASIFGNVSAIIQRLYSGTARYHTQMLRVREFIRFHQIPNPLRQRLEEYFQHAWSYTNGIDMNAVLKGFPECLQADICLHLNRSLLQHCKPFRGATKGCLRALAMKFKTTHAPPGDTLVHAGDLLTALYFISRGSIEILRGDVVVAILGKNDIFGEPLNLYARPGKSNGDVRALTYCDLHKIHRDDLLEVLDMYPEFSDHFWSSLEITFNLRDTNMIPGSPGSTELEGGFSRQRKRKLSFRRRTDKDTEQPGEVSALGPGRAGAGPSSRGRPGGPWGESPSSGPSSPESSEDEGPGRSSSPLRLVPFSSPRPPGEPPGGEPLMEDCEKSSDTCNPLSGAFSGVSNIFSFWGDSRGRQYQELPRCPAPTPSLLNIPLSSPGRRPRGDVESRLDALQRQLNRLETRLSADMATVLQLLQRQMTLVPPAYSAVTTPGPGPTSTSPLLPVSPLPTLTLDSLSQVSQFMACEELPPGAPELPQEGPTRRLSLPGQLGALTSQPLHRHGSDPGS

Row | SMILES | hERG current change (%, negative = inhibition) at 10uM
1 | Cc1nc(-c2ccc(S(=O)(=O)N3CCN(CCc4ccccc4)CC3)s2)cs1 | 12.5%
2 | CCOc1ccccc1NC(=O)CSc1nc(=O)n(Cc2ccncc2)c2c1CCC2 | -36.3%
3 | CCOc1ccc(NC(=O)CC2C(=O)N(c3ccc(OC)cc3)C(=S)N2Cc2ccccn2)cc1 (stereo not shown) | -29.5%
4 | COc1ccc(CNCCc2ccc3c(c2)OCO3)c(OC)c1OC.O=C(O)C(=O)O | -29.9%
5 | CCSc1nnc(-c2ccc(Cl)cc2)c2ccccc12 | 2.18%
6 | Cc1ccc(S(=O)(=O)N(Cc2cccc(C)c2)C(=O)N2CCN(C)CC2)cc1 | 19.2%
7 | O=C1CCC/C1=C/Nc1ccc2c(c1)OCO2 | 14.5%
8 | Cc1cccc(NC(=S)NC(=O)C2CC2)c1 | 4.59%
9 | Cc1csc(NC(=O)c2cc3c(s2)CCC3)n1 | -5.99%
10 | Cc1cccc(C)c1NC(=O)c1sc(N)nc1-c1ccccc1 | 7.39%
11 | O=C(NC1CC1)C1CC(=O)N(C2CCCCC2)C1 (stereo not shown) | 16.6%
12 | COc1ccc([C@H]2CC(=O)C=C(c3ccc4c(c3)OCCO4)C2)cc1 | 13.1%
13 | CC(C)C(NS(=O)(=O)c1cccs1)C(=O)NCc1ccccc1Cl (stereo not shown) | 0.166%
14 | O=C(NC1(C(F)(F)F)NC(=O)N(Cc2cccnc2)C1=O)c1ccccc1 (stereo not shown) | 6.25%
15 | COc1cc(OC)cc(C(=O)N[C@H](C(=O)Nc2nc3c(s2)CCCC3)C(C)C)c1 | 6.76%
16 | COc1ccc(C(=O)NC(=S)NNC(=O)c2ccncc2)cc1Br | 7.08%
17 | CCCN1C2CCCC1CC(NC(=S)Nc1cccc(C)c1C)C2 (stereo not shown) | 5.16%
18 | c1ccn(-c2ncnc3sc4c(c23)CCCC4)c1 | -14.6%
19 | CC1Cc2ccccc2N1C(=O)COc1ccc2c(c1)OCO2 (stereo not shown) | -3.18%
20 | O=C(Cn1cnc2cc([N+](=O)[O-])ccc2c1=O)Nc1ccc2c(c1)OCO2 | 4.33%
21 | NS(=O)(=O)c1ccc(CCNC(=O)c2ccc(OCC3CCCO3)cc2)cc1 (stereo not shown) | 19.9%
22 | O=C(CN(Cc1ccc(Cl)cc1)C(=O)CN1C(=O)COc2ccccc21)NC1CCCC1 | 15%
23 | CCC(C)c1ccc2oc(-c3ccc(NC(=O)Cn4cnc5c(=O)n(C)c(=O)n(C)c54)cc3)nc2c1 (stereo not shown) | 6.55%

Row | SMILES | hERG current change (%, negative = inhibition) at 10uM
24 | O=C(Nc1ccccc1)c1[nH]ncc1[N+](=O)[O-] | -11.8%
25 | c1ccc2c(c1)C(=NCC1CCCO1)NC2=NCC1CCCO1 (stereo not shown) | -22.2%
26 | O=C(O)CCCN=Cc1c(O)c2ccccc2oc1=O | 10.8%
27 | Cc1nn(C)c(C(=O)Nc2ccc(Br)cc2F)c1Br | 24.9%
28 | Cn1nc(C(=O)NC2CCCCC2)c2ccccc2c1=O | -15.3%
29 | O=C(Nc1cccc(-c2cn3ccccc3n2)c1)c1cccs1 | -19.9%
30 | O=S(=O)(c1ccccc1)N1CCN(c2cc(-c3ccccc3)nc3ncnn23)CC1 | -11.8%
31 | N#CC1(C#N)C(c2ccccc2)OC23CCCCCC2C1(C#N)C(=N)O3 (stereo not shown) | -23.4%
32 | Cc1cc(/C=N/NC(N)=S)c(O)c(/C=N/NC(N)=S)c1 | 9.43%
33 | Cc1ccc(C)c(OCCCCn2ccnc2)c1 | -23%
34 | O.[O-][N+]12CCN(CC1)c1ccccc12 | 16.6%
35 | O=c1cccccc1NCc1ccccc1 | -17.3%
36 | COC(=O)c1c(C)oc(C)c1S(=O)(=O)Nc1ccc(C(C)C)cc1 | 0.847%
37 | O=C(CN(C(=O)CCC(=O)Nc1nccs1)c1ccc(F)cc1)NCc1ccc(F)cc1 | 16.8%
38 | Cc1ccc(/C=N/NC(=O)c2cccc(S(=O)(=O)Nc3cccc(Cl)c3)c2)o1 | 12.3%
39 | COc1cccc(C(O)c2nc3ccccc3n2C(C)C)c1OC (stereo not shown) | 16.6%
40 | COc1c(F)c(F)c(C(=O)Nc2c(C)cc(Br)cc2C)c(F)c1F | 11.2%
41 | C/C(=N\Nc1cc(C)nc(-c2ccccc2)n1)c1cccc([N+](=O)[O-])c1 | 9.2%
42 | CCC(=O)NC(c1cccc([N+](=O)[O-])c1)c1c(OC(C)=O)ccc2ccccc12 (stereo not shown) | -11.2%
43 | O=C(O)CCN(Cc1ccccc1)S(=O)(=O)c1c(Cl)cccc1Cl | 8.15%
44 | O=C(C[N+]12CCC(CC1)C(CO)C2)c1ccc([N+](=O)[O-])cc1.[Br-] (stereo not shown) | 16.8%
45 | Cc1cccc(OC(C)c2ccnc3nc(/N=C/N(C)C)nn23)c1 (stereo not shown) | -10.7%
46 | CCC(C(=O)O/N=C(\N)c1ccc(Cl)cc1)c1ccccc1 (stereo not shown) | -17.2%

Row | SMILES | hERG current change (%, negative = inhibition) at 10uM
47 | Cc1ccccc1NC(=O)/C=C/c1ccc([N+](=O)[O-])s1 | 6.13%
48 | O=C(CCS(=O)(=O)c1ccc(Br)cc1)N1CCN(c2ccc(F)cc2)CC1 | -66.3%
49 | CCOC(=O)c1c(CC(C)C)csc1/N=C/C1=C(O)CCCC1=O | 12.9%
50 | CC(C)(C)c1ccc(C(=O)c2c[nH]c(C(=O)NCCc3ccccn3)c2)cc1 | 15.1%
51 | COC(=O)CCCNC(=O)c1ccccn1 | 4.61%
52 | CN(CC(=O)Nc1ccccc1Cl)C(=O)c1cc(=O)[nH]c2ccccc12 | 2.52%
53 | CN1CCC(OC(=O)c2ccccc2Cl)CC1.Cl | 0.522%
54 | CC(C)(C)c1ccc(NNC(=O)C2CCC2)cc1 | 14.4%
55 | CCCN(CC(=O)Nc1ccccc1C)C(=O)c1cc(=O)[nH]c2ccccc12 | 4.86%
56 | COC1=CC(=O)O[C@@H](/C=C/c2ccccc2)C1 | -11.4%
57 | CCCCC(=O)Nc1ccccc1C(C)C | 14.5%
58 | CCn1c(SCC(=O)NNC(=O)c2ccc(C)cc2)nnc1-c1ccco1 | 18.2%
59 | CNC(=O)/C=C1\NC(C)(C)Cc2c1ccc1ccccc21 | -17.3%
60 | COC(C(=O)Nc1ccc(F)cc1)c1ccccc1 (stereo not shown) | -0.691%
61 | O=C(NCCCN1CCN(c2cccc(Cl)c2)CC1)c1nc(-c2ccncc2)no1 | -63.2%
62 | CCOc1ccc(Cl)cc1S(=O)(=O)N1CCC(C(=O)NCc2ccco2)CC1 | -37%
63 | O=C(OCC(=O)N1CCCC1)c1ccccc1OCc1ccccc1 | -1.81%
64 | c1ccc(-c2nnsc2Sc2ccccn2)cc1 | 3.35%
65 | COCC(=O)N1CCCC(C(=O)c2ccc(C(F)(F)F)cc2)C1 (stereo not shown) | -0.113%
66 | O=C(Nc1nccs1)c1cnccn1 | -6.74%
67 | Cc1ccc(Cn2nc(C)cc2C(=O)Nc2ccc(Cl)cc2)cc1 | 14.3%
68 | CN(Cc1cn(C)nc1-c1cccc(Cl)c1)CC1CCCCO1 (stereo not shown) | -15.6%
69 | Cc1ccc(NC(=O)CSc2nnc(-c3ccccn3)n2C)cc1 | -28.1%

Row | SMILES | hERG current change (%, negative = inhibition) at 10uM
70 | O=C(Nc1cccnc1)c1cc([N+](=O)[O-])ccc1Cl | -0.51%
71 | CCC(=O)N1CCN=C1SCc1c(F)cccc1Cl | -15.4%
72 | CC(=O)Nc1cccc(-c2nn[nH]n2)c1 | 7.82%
73 | CC(=O)c1c(C)[nH]c(C(=O)COC(=O)CNS(=O)(=O)c2ccccc2)c1C | -2.66%
74 | CCOc1ccc(NC(=O)c2ccc(NC(=O)CN3C(=O)C(=O)N(CC(C)C)C3=O)cc2)cc1 | -7.16%
75 | O=C(Nc1ccc(S(=O)(=O)N2CCOCC2)cc1)c1cccnc1 | 2.78%
76 | COc1ccc(Br)cc1CNC(=O)Cc1cccs1 | 8.98%
77 | CCN(CC)CCNCC(O)(c1ccc(Cl)cc1)c1ccc(Cl)cc1 | -82.4%
78 | CCNc1nc(OC)nc(Oc2ccc(=O)n(-c3ccccc3)n2)n1 | 7.99%
79 | O=C(COC(=O)c1ccccc1N1C(=O)C2C3CCC(C3)C2C1=O)c1ccccc1 (stereo not shown) | 1.28%
80 | COc1cc([N+](=O)[O-])ccc1NC(=S)N1CCOCC1 | -0.54%
81 | Cc1ccc(-c2nc3ccccc3[nH]2)cc1NC(=O)c1sc2ccccc2c1Cl | 15.9%
82 | Cc1noc(C)c1CSCC(=O)Nc1cc(Cl)ccc1N1CCOCC1 | -11.7%
83 | O=S(=O)(N/N=C\C=C\c1ccccc1)c1ccc(Br)cc1 | -4.52%
84 | COc1cccc(C2/C(=C(/O)c3cnn(-c4ccccc4)c3C)C(=O)C(=O)N2CCN(C)C)c1OC (stereo not shown) | 17%
85 | CNC(=O)c1oc(-c2ccc(Cl)cc2)nc1C | 20.6%
86 | CC(C)CC(NS(=O)(=O)c1ccc2c(c1)oc(=O)n2C)C(=O)N1CC=C(c2ccccc2)CC1 (stereo not shown) | -7.69%
87 | COC(=O)c1cn(Cc2ccccc2C)nn1 | 1.17%
88 | CCSc1nnc(NC(=O)c2ccco2)s1 | 8.1%
89 | COc1ccc2[nH]c(C(=O)N(C)c3ccc(F)cc3F)cc2c1 | 24.2%
90 | O=C(Nc1ccccc1Cl)C1C(c2ccccc2)C1(Cl)Cl (stereo not shown) | 11.2%
91 | CC(=O)Nc1cccc(NC(=O)CSc2nnnn2C(C)C)c1 | 9.22%

Source: paper PMC4336329 (PLoS ONE, 2015)
